# The list shows a part of the results.
# B1: Siglec-F (Mus musculus), Q920G3 (protein)
# chain: MRWAWLLPLLWAGCLATDGYSLSVTGSVTVQEGLCVFVACQVQYPNSKGPVFGYWFREGANIFSGSPVATNDPQRSVLKEAQGRFYLMGKENSHNCSLDIRDAQKIDTGTYFFRLDGSVKYSFQKSMLSVLVIALTEVPNIQVTSTLVSGNSTKLLCSVPWACEQGTPPIFSWMSSALTSLGHRTTLSSELNLTPRPQDNGTNLTCQVNLPGTGVTVERTQQLSVIYAPQKMTIRVSWGDDTGTKVLQSGASLQIQEGESLSLVCMADSNPPAVLSWERPTQKPFQLSTPAELQLPRAELEDQGKYICQAQNSQGAQTASVSLSIRSLLQLLGPSCSFEGQGLHCSCSSRAWPAPSLRWRLGEGVLEGNSSNGSFTVKSSSAGQWANSSLILSMEFSSNHRLSCEAWSDNRVQRATILLVSGPKVSQAGKSETSRGTVLGAIWGAGLMALLAVCLCLIFFTVKVLRKKSALKVAATKGNHLAKNPASTINSASITSSNIALGYPIQGHLNEPGSQTQKEQPPLATVPDTQKDEPELHYASLSFQGPMPPKPQNTEAMKSVYTEIKIHKC
# How the values were obtained:
# Test in all cases: glycan array binding signal (z-score within array); higher = stronger binding
# Settings in all cases: glycan notation: IUPAC condensed, linker removed
# [1] = biological target: Neu5Ac(a2-6)Gal(b1-4)GlcNAc(b1-2)Man(a1-3)[Neu5Ac(a2-6)Gal(b1-4)GlcNAc(b1-2)Man(a1-6)]Man(b1-4)GlcNAc(b1-4)[Fuc(a1-6)]GlcNAc
# Procedure, shortened: (§1)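 The binding signal is a Z-score computed within each array. Data were drawn from 3228 arrays in the Consortium for Functional Glycomics database, restricted to those with a known protein sequence. Scores were averaged over arrays of the same protein sequence at different concentrations or buffers, and over linkers, and negative values can be taken as non-binding.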
# [2] = biological target: Neu5Ac(a2-6)Gal(b1-4)GlcNAc(b1-2)Man(a1-6)Man(b1-4)GlcNAc(b1-4)GlcNAc
# Procedure, shortened: as §1
# [3] = biological target: Neu5Ac(a2-6)Gal(b1-4)GlcNAc(b1-2)Man(a1-6)[Gal(b1-4)GlcNAc(b1-2)Man(a1-3)]Man(b1-4)GlcNAc(b1-4)GlcNAc
# Procedure, shortened: as §1
# [4] = biological target: Neu5Ac(a2-6)Gal(b1-4)GlcNAc(b1-2)Man(a1-6)[GlcNAc(b1-2)Man(a1-3)]Man(b1-4)GlcNAc(b1-4)GlcNAc
# Procedure, shortened: as §1
# [5] = biological target: Neu5Ac(a2-6)Gal(b1-4)GlcNAc(b1-2)Man(a1-6)[Man(a1-3)]Man(b1-4)GlcNAc(b1-4)GlcNAc
# Procedure, shortened: as §1
# [6] = biological target: Neu5Ac(a2-6)Gal(b1-4)GlcNAc(b1-2)[Neu5Ac(a2-6)Gal(b1-4)GlcNAc(b1-4)]Man(a1-3)[GlcNAc(b1-4)][Neu5Ac(a2-6)Gal(b1-4)GlcNAc(b1-2)[Neu5Ac(a2-6)Gal(b1-4)GlcNAc(b1-6)]Man(a1-6)]Man(b1-4)GlcNAc(b1-4)GlcNAc
# Procedure, shortened: as §1
# [7] = biological target: Neu5Ac(a2-6)Gal(b1-4)GlcNAc(b1-2)[Neu5Ac(a2-6)Gal(b1-4)GlcNAc(b1-4)]Man(a1-3)[GlcNAc(b1-4)][Neu5Ac(a2-6)Gal(b1-4)GlcNAc(b1-4)Man(a1-6)]Man(b1-4)GlcNAc(b1-4)GlcNAc
# Procedure, shortened: as §1
# [8] = biological target: Neu5Ac(a2-6)Gal(b1-4)GlcNAc(b1-2)[Neu5Ac(a2-6)Gal(b1-4)GlcNAc(b1-6)]Man(a1-6)[Neu5Ac(a2-6)Gal(b1-4)GlcNAc(b1-2)Man(a1-3)][GlcNAc(b1-4)]Man(b1-4)GlcNAc(b1-4)GlcNAc
# Procedure, shortened: as §1
# [9] = biological target: Neu5Ac(a2-6)Gal(b1-4)GlcNAc(b1-3)Gal(b1-3)GlcNAc
# Procedure, shortened: as §1
# [10] = biological target: Neu5Ac(a2-6)Gal(b1-4)GlcNAc(b1-3)Gal(b1-4)GlcNAc
# Procedure, shortened: as §1
# [11] = biological target: Neu5Ac(a2-6)Gal(b1-4)GlcNAc(b1-3)Gal(b1-4)GlcNAc(b1-2)Man(a1-3)[Neu5Ac(a2-6)Gal(b1-4)GlcNAc(b1-3)Gal(b1-4)GlcNAc(b1-2)Man(a1-6)]GalNAc
# Procedure, shortened: as §1
# [12] = biological target: Neu5Ac(a2-6)Gal(b1-4)GlcNAc(b1-3)Gal(b1-4)GlcNAc(b1-3)Gal(b1-4)GlcNAc
# Procedure, shortened: as §1
# [13] = biological target: Neu5Ac(a2-6)Gal(b1-4)GlcNAc(b1-3)Gal(b1-4)GlcNAc(b1-3)Gal(b1-4)GlcNAc(b1-2)Man(a1-3)[Neu5Ac(a2-6)Gal(b1-4)GlcNAc(b1-3)Gal(b1-4)GlcNAc(b1-3)Gal(b1-4)GlcNAc(b1-2)Man(a1-6)]GalNAc
# Procedure, shortened: as §1
# [14] = biological target: Neu5Ac(a2-6)Gal(b1-4)GlcNAc(b1-3)Gal(b1-4)GlcNAc(b1-3)GalNAc
# Procedure, shortened: as §1
# [15] = biological target: Neu5Ac(a2-6)Gal(b1-4)GlcNAc(b1-3)Gal(b1-4)GlcNAc(b1-3)[Neu5Ac(a2-6)Gal(b1-4)GlcNAc(b1-3)Gal(b1-4)GlcNAc(b1-6)]GalNAc
# Procedure, shortened: as §1
# [16] = biological target: Neu5Ac(a2-6)Gal(b1-4)GlcNAc(b1-3)Gal(b1-4)GlcNAc(b1-6)[Gal(b1-3)]GalNAc
# Procedure, shortened: as §1
# [17] = biological target: Neu5Ac(a2-6)Gal(b1-4)GlcNAc(b1-3)Gal(b1-4)[Fuc(a1-3)]GlcNAc(b1-3)Gal(b1-4)[Fuc(a1-3)]GlcNAc
# Procedure, shortened: as §1
# [18] = biological target: Neu5Ac(a2-6)Gal(b1-4)GlcNAc(b1-3)GalNAc
# Procedure, shortened: as §1
# [19] = biological target: Neu5Ac(a2-6)Gal(b1-4)GlcNAc(b1-3)[Neu5Ac(a2-6)Gal(b1-4)GlcNAc(b1-6)]GalNAc
# Procedure, shortened: as §1
# [20] = biological target: Neu5Ac(a2-6)Gal(b1-4)GlcNAc(b1-6)GalNAc
# Procedure, shortened: as §1
# [21] = biological target: Neu5Ac(a2-6)Gal(b1-4)GlcNAc(b1-6)[Gal(b1-3)GlcNAc(b1-3)]Gal(b1-4)Glc
# Procedure, shortened: as §1
# [22] = biological target: Neu5Ac(a2-6)Gal(b1-4)GlcNAc(b1-6)[Gal(b1-3)]GalNAc
# Procedure, shortened: as §1
# [23] = biological target: Neu5Ac(a2-6)Gal(b1-4)GlcNAc6S
# Procedure, shortened: as §1
# Neu5Ac(a2-6)GalNAc = biological target: Neu5Ac(a2-6)GalNAc
# Procedure, shortened: as §1
# [24] = biological target: Neu5Ac(a2-6)GalNAc(b1-4)GlcNAc
# Procedure, shortened: as §1
# [25] = biological target: Neu5Ac(a2-6)GalNAc(b1-4)GlcNAc6S
# Procedure, shortened: as §1
# [26] = biological target: Neu5Ac(a2-6)GlcNAc(b1-4)GlcNAc
# Procedure, shortened: as §1
# [27] = biological target: Neu5Ac(a2-6)GlcNAc(b1-4)GlcNAc(b1-4)GlcNAc
# Procedure, shortened: as §1
# Neu5Ac(a2-8)Neu5Ac = biological target: Neu5Ac(a2-8)Neu5Ac
# Procedure, shortened: as §1
binder,measurement,setting,value
B1,glycan array binding signal (z-score),[1],-0.128
same,glycan array binding signal (z-score),[2],-0.113
same,glycan array binding signal (z-score),[3],0.026
same,glycan array binding signal (z-score),[4],-0.085
same,glycan array binding signal (z-score),[5],-0.131
same,glycan array binding signal (z-score),[6],-0.078
same,glycan array binding signal (z-score),[7],-0.097
same,glycan array binding signal (z-score),[8],-0.145
same,glycan array binding signal (z-score),[9],-0.122
same,glycan array binding signal (z-score),[10],-0.116
same,glycan array binding signal (z-score),[11],-0.145
same,glycan array binding signal (z-score),[12],-0.125
same,glycan array binding signal (z-score),[13],0.301
same,glycan array binding signal (z-score),[14],-0.147
same,glycan array binding signal (z-score),[15],0.011
same,glycan array binding signal (z-score),[16],-0.102
same,glycan array binding signal (z-score),[17],-0.103
same,glycan array binding signal (z-score),[18],-0.092
same,glycan array binding signal (z-score),[19],-0.123
same,glycan array binding signal (z-score),[20],-0.072
same,glycan array binding signal (z-score),[21],-0.064
same,glycan array binding signal (z-score),[22],-0.156
same,glycan array binding signal (z-score),[23],-0.11
same,glycan array binding signal (z-score),Neu5Ac(a2-6)GalNAc,-0.113
same,glycan array binding signal (z-score),[24],-0.121
same,glycan array binding signal (z-score),[25],-0.139
same,glycan array binding signal (z-score),[26],-0.127
same,glycan array binding signal (z-score),[27],-0.123
same,glycan array binding signal (z-score),Neu5Ac(a2-8)Neu5Ac,-0.115

# — the supplement of paper PMC8728848
